This is an account of results in ChEMBL document CHEMBL4888484, “Replenishing the malaria drug discovery pipeline: Screening and hit evaluation of the MMV Hit Generation Library 1 (HGL1) against asexual blood stage Plasmodium falciparum ,using a nano luciferase reporter read-out” (2022).

Each structure is given as a SMILES string. The campaign covered roughly 150,000 compounds. About 540 (0.36%) showed an effect of 50% or more. This is one part of the list.

One may read the % Inhibition as the relative decrease from the control value, in per cent.

The test concerns Plasmodium falciparum. Kind of test: Primary screen in NF54 nanoGlo assay, in single point, at 2uM, 72h; a lower Z score goes with more inhibition. The class given is functional, Erythrocyte. As to conditions: timepoint 72 hour.
Regarding `CCOC(=O)c1ccc(NC(=O)[C@@H]2CN(S(C)(=O)=O)c3cc(C)ccc3O2)cc1`, the “% Inhibition” value was 0% and the Z score is given as -0.04.

Consider `O=C(Cn1cccc1-c1nc(-c2ccc3c(c2)OCO3)no1)N1CCN(c2ccccc2F)CC1`, for which the “% Inhibition” value is reported as -3% and the Z score amounted to 0.42.

For `O=C(c1ccccn1)N1CCN(Cc2ccccc2F)[C@@H]2CS(=O)(=O)C[C@@H]21`, the “% Inhibition” value is recorded as -9% and the Z score is given as 1.45.

Consider `O=C(O)c1ccccc1N(Cc1ccc(Br)cc1)C(=O)c1ccco1`, for which the “% Inhibition” value was 6% and the Z score is reported as -0.8.

For `S=c1sc2c(N3CCN(C/C=C/c4ccccc4)CC3)ncnc2n1-c1ccccc1`, the “% Inhibition” value is recorded as -9% and the Z score stood at 1.05.

Consider `CCN1CCN([C@H]2CCN(c3cc(Cl)ccc3C#N)C2)CC1`, for which the “% Inhibition” value is listed as -9% and the Z score came to 1.34.

Take `CC1CCN(C(=O)c2nc(Cn3cnc4ccccc4c3=O)no2)CC1`: the “% Inhibition” value amounted to 9% and the Z score is -1.25.

Turning to `Cc1oc(-c2cc(C(F)(F)F)ccc2Cl)cc1-c1nnc(-c2ccco2)o1`, the “% Inhibition” value is -2% and the Z score is recorded as 0.37.

Take `CC(=O)N1CCC(NC(=O)N2CCC[C@H]2c2cccs2)CC1`: the “% Inhibition” value is listed as -16% and the Z score worked out at 2.04.

Take `CCN(C(=O)c1cnc(C)nc1C)c1cccc(F)c1`: the “% Inhibition” value is listed as -10% and the Z score is listed as 0.99.

Turning to `COc1ccc(-c2nc(C)nc(C(F)(F)F)c2-c2csc(C)n2)c(O)c1`, the “% Inhibition” value is -10% and the Z score was found to be 0.9.

As for `CCc1cc(NCC2(N3CCCC3)CCCC2)ncn1`, the “% Inhibition” value is listed as -6% and the Z score was 0.95.

As to `COC(=O)c1ccccc1C(=O)N1CCC(Oc2ccc(C)nn2)CC1`, the “% Inhibition” value is -1% and the Z score was 0.14.

With `COc1ccc(S(=O)(=O)Nc2ccccc2C(=O)Nc2cccc(C)n2)cc1`, the “% Inhibition” value is listed as -3% and the Z score worked out at 0.28.

As to `N#Cc1cc2n(n1)CCCN(CC(=O)NCC1CCCCC1)C2`, the “% Inhibition” value is -3% and the Z score was 0.54.

For the compound `O=C(NC[C@@H]1CCCN2CCCC[C@H]12)c1cc2c(Cl)cccc2s1`, the “% Inhibition” value is on record as -1% and the Z score turned out to be 0.09.

Turning to `Cc1ccc(C)c(OCc2nc(CC(=O)NCc3ccco3)cs2)c1`, the “% Inhibition” value is -11% and the Z score was 1.62.

For the compound `CCCCN=C(NCc1ccccc1)NC(C)C`, the “% Inhibition” value turned out to be 7% and the Z score is -1.14.

`COC[C@H]1NC(=O)CC[C@H]1C(=O)N1CCN(c2ccccc2OC)CC1`: the “% Inhibition” value was -9% and the Z score is recorded as 1.06.

As for `O=C1COc2c(cccc2NC(=O)N2CC(F)(F)OC(F)(F)C2)N1`, the “% Inhibition” value was -11% and the Z score is 1.57.

On to `Cc1ccc(C(=O)Nc2cc3c4c(c2)C2CCCC2CN4CC2CCCC32)cc1` (centres undefined), for which the “% Inhibition” value is listed as 57% and the Z score is listed as -4.94.

Turning to `O=C(O)c1cc(C2CC2)nc2c1c(C1CC1)nn2-c1ccc(F)cc1`, the “% Inhibition” value is listed as -13% and the Z score was found to be 1.47.

Turning to `O=C1CCC(=O)N1c1ccc(-c2nc3ccccc3o2)cc1`, the “% Inhibition” value is reported as -24% and the Z score is given as 4.78.

On to `CC1Cc2ccccc2N1CC(O)COCc1ccco1` (centres undefined), for which the “% Inhibition” value is 6% and the Z score is listed as -0.77.

As to `CCO/N=C(/NCc1ccccc1)c1nonc1N`, the “% Inhibition” value was found to be 4% and the Z score was -0.57.

In the case of `C[C@H](NC(=O)c1cncn1-c1ccc(-c2cc(C(F)(F)F)cc(C(F)(F)F)c2)cc1)C(C)(C)C`, the “% Inhibition” value is listed as 9% and the Z score was -1.16.

As for `C=CCn1c(=O)c2sc(N(CC)CC)nc2n(CC(=O)Nc2ccccc2CC)c1=O`, the “% Inhibition” value is -13% and the Z score came to 1.13.

Turning to `CN1CCN(c2ncccc2CNC(=O)c2nccnc2N)CC1`, the “% Inhibition” value was -7% and the Z score is recorded as 0.88.

As to `CCN1CCN(c2nc3ncn(CC(=O)Nc4cc(Cl)ccc4C)c(=O)c3s2)CC1`, the “% Inhibition” value was 3% and the Z score was -0.43.

Take `COc1ccccc1[C@H](CNC(=O)CN1C(=O)CCC1=O)OC`: the “% Inhibition” value came to 21% and the Z score is listed as -2.66.

As to `CNc1nc(C)cc(-c2cccc(C(=O)N[C@@H](C)c3csc(C)n3)c2)n1`, the “% Inhibition” value stood at 4% and the Z score is -0.35.

Take `C[C@@H](CS(C)(=O)=O)NCC(C)(C)c1cccc(Br)c1`: the “% Inhibition” value is -4% and the Z score is given as 0.49.

With `O=C(Nc1snnc1C(=O)N1CCN(c2ccccn2)CC1)N1CCOCC1`, the “% Inhibition” value was found to be 4% and the Z score was -0.64.

Turning to `Cc1ccc(Cl)cc1CNC(=O)N1CCS(=O)(=O)CC[C@@H]1C`, the “% Inhibition” value is given as -1% and the Z score is recorded as 0.19.

Turning to `O=C(CCc1ccsc1)N1CCC2(CC1)CC(=O)N(C[C@H]1CCCO1)C2`, the “% Inhibition” value was -2% and the Z score is reported as 0.5.

Regarding `CCc1ccc(-c2cnc(O)nc2)cc1`, the “% Inhibition” value is given as -12% and the Z score is 1.95.

For `COc1cncc(C(=O)N2CC(C)(C)[C@@H]2C(C)C)n1`, the “% Inhibition” value is given as -18% and the Z score is listed as 1.95.

Turning to `COCCN(C(=O)NCc1ncccn1)[C@H]1CCOC1`, the “% Inhibition” value is -9% and the Z score was determined as 1.36.

In the case of `O=S(=O)(Cc1ccc(Cl)cc1Br)NCC1CC1`, the “% Inhibition” value is listed as -13% and the Z score is listed as 1.95.

For `Cc1ccc(-c2cc(NC(=O)c3ccccc3)c(=O)n(CC(=O)Nc3ccc4c(c3)OCO4)n2)cc1`, the “% Inhibition” value is listed as -7% and the Z score is given as 1.21.

As for `CC[C@@H](C(=O)NCCN1CCCC1)n1cccn1`, the “% Inhibition” value is recorded as -26% and the Z score is reported as 2.64.

In the case of `Cc1ccc2c(c1)nc(CNC(=O)N1CCCCC[C@H]1c1c(C)n[nH]c1C)n2C`, the “% Inhibition” value amounted to 14% and the Z score was -1.37.
